Measurements published in the supplement of paper PMC8728848.
This is one part of the list.

Key:
Assay in all cases: glycan array binding signal (z-score within array); higher = stronger binding
Conditions in all cases: glycan notation: IUPAC condensed, linker removed
Gal3S6S(b1-4)GlcNAc = molecular target: Gal3S6S(b1-4)GlcNAc
Procedure, shortened: (§1)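 From the Consortium for Functional Glycomics database, 3228 arrays were curated, keeping only those whose protein sequence was available. Binding is given as a within-array Z-score averaged across arrays sharing a protein sequence and across linkers. Negative Z-scores can be read as non-binding.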

Gal3S6S(b1-4)GlcNAc6S = molecular target: Gal3S6S(b1-4)GlcNAc6S
Procedure, shortened: as §1

Gal4S(b1-4)GlcNAc = molecular target: Gal4S(b1-4)GlcNAc
Procedure, shortened: as §1

Gal4S6S(b1-4)GlcNAc = molecular target: Gal4S6S(b1-4)GlcNAc
Procedure, shortened: as §1

Gal6P(b1-4)GlcNAc = molecular target: Gal6P(b1-4)GlcNAc
Procedure, shortened: as §1

Gal6S(b1-3)GlcNAc = molecular target: Gal6S(b1-3)GlcNAc
Procedure, shortened: as §1

Gal6S(b1-3)GlcNAc6S = molecular target: Gal6S(b1-3)GlcNAc6S
Procedure, shortened: as §1

Gal6S(b1-4)Glc = molecular target: Gal6S(b1-4)Glc
Procedure, shortened: as §1

Gal6S(b1-4)Glc6S = molecular target: Gal6S(b1-4)Glc6S
Procedure, shortened: as §1

Gal6S(b1-4)GlcNAc = molecular target: Gal6S(b1-4)GlcNAc
Procedure, shortened: as §1

Gal6S(b1-4)GlcNAc6S = molecular target: Gal6S(b1-4)GlcNAc6S
Procedure, shortened: as §1

GalNAc(a1-3)Gal = molecular target: GalNAc(a1-3)Gal
Procedure, shortened: as §1

GalNAc(a1-3)GalNAc = molecular target: GalNAc(a1-3)GalNAc
Procedure, shortened: as §1

[1] = molecular target: GalNAc(a1-3)GalNAc(a1-3)Gal(a1-4)Gal(b1-4)GlcNAc
Procedure, shortened: as §1

[2] = molecular target: GalNAc(a1-3)GalNAc(b1-3)Gal(a1-4)Gal(b1-4)Glc
Procedure, shortened: as §1

GalNAc(b1-3)Gal = molecular target: GalNAc(b1-3)Gal
Procedure, shortened: as §1

[3] = molecular target: GalNAc(b1-3)Gal(a1-4)Gal(b1-4)GlcNAc
Procedure, shortened: as §1

[4] = molecular target: GalNAc(b1-3)Gal(a1-4)Gal(b1-4)GlcNAc(b1-3)Gal(b1-4)Glc
Procedure, shortened: as §1

[5] = molecular target: GalNAc(b1-3)Gal(a1-6)Gal(b1-4)Glc
Procedure, shortened: as §1

GalNAc(b1-3)GalNAc = molecular target: GalNAc(b1-3)GalNAc
Procedure, shortened: as §1

GalNAc(b1-3)GlcNAc = molecular target: GalNAc(b1-3)GlcNAc
Procedure, shortened: as §1

GalNAc(b1-4)Gal(b1-4)Glc = molecular target: GalNAc(b1-4)Gal(b1-4)Glc
Procedure, shortened: as §1

GalNAc(b1-4)GlcNAc = molecular target: GalNAc(b1-4)GlcNAc
Procedure, shortened: as §1

[6] = molecular target: GalNAc(b1-4)GlcNAc(b1-2)Man
Procedure, shortened: as §1

[7] = molecular target: GalNAc(b1-4)GlcNAc(b1-2)Man(a1-3)[GalNAc(b1-4)GlcNAc(b1-2)Man(a1-6)]Man(b1-4)GlcNAc(b1-4)GlcNAc
Procedure, shortened: as §1

[8] = molecular target: GalNAc(b1-4)GlcNAc(b1-3)GalNAc(b1-4)GlcNAc
Procedure, shortened: as §1

GalNAc(b1-4)GlcNAc6S = molecular target: GalNAc(b1-4)GlcNAc6S
Procedure, shortened: as §1

GalNAc(b1-6)GalNAc = molecular target: GalNAc(b1-6)GalNAc
Procedure, shortened: as §1

GalNAc3S(b1-4)GlcNAc = molecular target: GalNAc3S(b1-4)GlcNAc
Procedure, shortened: as §1

GalNAc3S(b1-4)GlcNAc3S = molecular target: GalNAc3S(b1-4)GlcNAc3S
Procedure, shortened: as §1

[9] = molecular target: GalNAc3S(b1-4)[Fuc(a1-3)]GlcNAc
Procedure, shortened: as §1

GalNAc4S6S(b1-4)GlcNAc = molecular target: GalNAc4S6S(b1-4)GlcNAc
Procedure, shortened: as §1

GalNAc6S(b1-4)GlcNAc = molecular target: GalNAc6S(b1-4)GlcNAc
Procedure, shortened: as §1

Glc(a1-4)Glc = molecular target: Glc(a1-4)Glc
Procedure, shortened: as §1

[10] = molecular target: Glc(a1-4)Glc(a1-4)Glc(a1-4)Glc
Procedure, shortened: as §1

Glc(a1-6)Glc(a1-6)Glc = molecular target: Glc(a1-6)Glc(a1-6)Glc
Procedure, shortened: as §1

[11] = molecular target: Glc(a1-6)Glc(a1-6)Glc(a1-6)Glc
Procedure, shortened: as §1

Glc(b1-4)Glc = molecular target: Glc(b1-4)Glc
Procedure, shortened: as §1

Glc(b1-6)Glc = molecular target: Glc(b1-6)Glc
Procedure, shortened: as §1

GlcA(b1-3)Gal = molecular target: GlcA(b1-3)Gal
Procedure, shortened: as §1

GlcA(b1-3)GlcNAc = molecular target: GlcA(b1-3)GlcNAc
Procedure, shortened: as §1

GlcA(b1-6)Gal = molecular target: GlcA(b1-6)Gal
Procedure, shortened: as §1

[12] = molecular target: GlcA3S(b1-3)Gal(b1-4)GlcNAc(b1-2)Man
Procedure, shortened: as §1

[13] = molecular target: GlcA3S(b1-3)Gal(b1-4)GlcNAc(b1-3)Gal(b1-4)Glc
Procedure, shortened: as §1

[14] = molecular target: GlcNAc(a1-3)Gal(b1-4)GlcNAc
Procedure, shortened: as §1

B1: HHA (Hippeastrum hybrid) (protein)
chain: MQQDCNLVLYDVDKPIWASNTGGLARDCHLNMQSDGNLVVYAPRNQVIWASNTQGENGNYVCILQKDRNVVIYGTARWATGTNIHGAGIVGVPGSAPQNTTAEMIKLVRKYLITK
Gal3S6S(b1-4)GlcNAc
  glycan array binding signal (z-score): -0.208
Gal3S6S(b1-4)GlcNAc6S
  glycan array binding signal (z-score): -0.218
Gal4S(b1-4)GlcNAc
  glycan array binding signal (z-score): -0.205
Gal4S6S(b1-4)GlcNAc
  glycan array binding signal (z-score): -0.212
Gal6P(b1-4)GlcNAc
  glycan array binding signal (z-score): -0.226
Gal6S(b1-3)GlcNAc
  glycan array binding signal (z-score): -0.225
Gal6S(b1-3)GlcNAc6S
  glycan array binding signal (z-score): -0.215
Gal6S(b1-4)Glc
  glycan array binding signal (z-score): -0.207
Gal6S(b1-4)Glc6S
  glycan array binding signal (z-score): -0.2
Gal6S(b1-4)GlcNAc
  glycan array binding signal (z-score): -0.218
Gal6S(b1-4)GlcNAc6S
  glycan array binding signal (z-score): -0.217
GalNAc(a1-3)Gal
  glycan array binding signal (z-score): -0.216
GalNAc(a1-3)GalNAc
  glycan array binding signal (z-score): -0.215
[1]
  glycan array binding signal (z-score): -0.206
[2]
  glycan array binding signal (z-score): -0.196
GalNAc(b1-3)Gal
  glycan array binding signal (z-score): -0.21
[3]
  glycan array binding signal (z-score): -0.191
[4]
  glycan array binding signal (z-score): -0.203
[5]
  glycan array binding signal (z-score): -0.203
GalNAc(b1-3)GalNAc
  glycan array binding signal (z-score): 1.25
GalNAc(b1-3)GlcNAc
  glycan array binding signal (z-score): -0.21
GalNAc(b1-4)Gal(b1-4)Glc
  glycan array binding signal (z-score): -0.199
GalNAc(b1-4)GlcNAc
  glycan array binding signal (z-score): -0.162
[6]
  glycan array binding signal (z-score): -0.213
[7]
  glycan array binding signal (z-score): -0.099
[8]
  glycan array binding signal (z-score): -0.211
GalNAc(b1-4)GlcNAc6S
  glycan array binding signal (z-score): -0.209
GalNAc(b1-6)GalNAc
  glycan array binding signal (z-score): -0.218
GalNAc3S(b1-4)GlcNAc
  glycan array binding signal (z-score): -0.201
GalNAc3S(b1-4)GlcNAc3S
  glycan array binding signal (z-score): -0.223
[9]
  glycan array binding signal (z-score): -0.214
GalNAc4S6S(b1-4)GlcNAc
  glycan array binding signal (z-score): -0.218
GalNAc6S(b1-4)GlcNAc
  glycan array binding signal (z-score): -0.209
Glc(a1-4)Glc
  glycan array binding signal (z-score): -0.204
[10]
  glycan array binding signal (z-score): -0.2
Glc(a1-6)Glc(a1-6)Glc
  glycan array binding signal (z-score): -0.205
[11]
  glycan array binding signal (z-score): -0.187
Glc(b1-4)Glc
  glycan array binding signal (z-score): -0.214
Glc(b1-6)Glc
  glycan array binding signal (z-score): -0.203
GlcA(b1-3)Gal
  glycan array binding signal (z-score): -0.198
GlcA(b1-3)GlcNAc
  glycan array binding signal (z-score): -0.211
GlcA(b1-6)Gal
  glycan array binding signal (z-score): -0.203
[12]
  glycan array binding signal (z-score): -0.214
[13]
  glycan array binding signal (z-score): -0.214
[14]
  glycan array binding signal (z-score): -0.2
